Data published in the supplement of paper PMC11417369.
± gives the standard deviation of the averaged measurements. The list shows a part of the results.

Test system: PfAP2-EXP AP2 domain (GST-tagged)
Experiment: gcPBM binding intensity (ln(normalized median fluorescence intensity)); higher = stronger DNA binding
Summary of the method: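 Probes on an Agilent 4 × 180k array were primer-extended, double-stranded and 36 bp long, taken from intergenic genomic regions, with negative controls added. GST-tagged P. falciparum DNA-binding domains from E. coli, about 25 μg on average, were applied to the array for 1 h in 1× PBS containing 1% milk, 0.2 mg/ml BSA, 0.5% salmon testes DNA and 0.03% Triton X-100. Binding intensity, obtained after Alexa488 anti-GST antibody detection and a 488 nm scan, is the highest Masliner-normalised natural-log median intensity across replicate spots of either probe orientation.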

| Sequence | gcPBM binding intensity (ln) |
| --- | --- |
| TACTACACACATTCATGTACTTGATAAATTAATGAT [XGTACX_site6444] | 8.53 ± 0.22 |
| ATAACTAATATGAAATGTACCCATCAAAGTGTGCAT [XGTACX_site4463] | 8.32 ± 0.35 |
| AAAATTAAAATACGTACACACCTTATCTTTTTGGCT [CACACA_site4311] | 8.56 ± 0.28 |
| TTATAACATCTTAAATGTACAAATATGTGCTTATTT [XGTACX_site7285] | 8.545 ± 0.049 |
| ATATTAAAATACAGTGCATGTTAAAAATATATTATA [TGCATGCA_site977] | 9.38 ± 0.17 |
| ATGTATTTATATACTTGTACGTAAGATGTATTATAT [XGTACX_site908] | 8.59 ± 0.38 |
| TAAAAAAAAAACATCTGTACCAATTTTTATGTATAA [XGTACX_site5196] | 8.07 ± 0.38 |
| AATAAAAGTTCACCTGTACACACATATATATATGTA [CACACA_site8500] | 8.76 ± 0.34 |
| TTAATTCGTACATACACACGCACATATATATATATA [CACACA_site1469] | 10.1 ± 0.38 |
| ATTGGAAAATATGTTATATATATATATATATATATG [CACACA_negctrl_site116] | 8.715 ± 0.049 |
| AATAATAATAGAAACACACACACATCTTTAATAATA [CACACA_site4805] | 8.63 ± 0.69 |
| ATATTTTTTTTCTACACACATACAAATATATATTAT [CACACA_site2359] | 8.97 ± 0.46 |
| CTTTTTCGCATGAAAAGTACATGAAATATATTACAT [XGTACX_site8971] | 8.42 ± 0.35 |
| ACATGCAACCATTCGGGTACAGAAATAAATATATAC [XGTACX_site4174] | 8.98 ± 0.2 |
| AATAACTTTTTAAACACACACACATATAAATAAATA [CACACA_site6196] | 8.72 ± 0.57 |
| GGTTATAACGCACATGCACACGTAAATAAATATTAT [CACACA_site9277] | 9.17 ± 0.37 |
| TAAATTTTAATAAATACACACAAATTTTAATTCTAT [CACACA_site6039] | 8.22 ± 0.39 |
| TATTGTATATAATAAACACACAATATTAAAAATATA [CACACA_site1057] | 8.22 ± 0.45 |
| TATTTAAAAAACACATGTACGAGTATTATATATAAA [XGTACX_site6654] | 8.72 ± 0.34 |
| TAATATACTTAATACACACACGAATATTTATAAATA [CACACA_site6675] | 8.62 ± 0.41 |
| CCCCTCGAAATAATTTGTACGAATATATTGTCTGTA [XGTACX_site8308] | 9.71 ± 0.32 |
| AAACTCAACTTATATACACACAATCTTTTTTTTTTA [CACACA_site29] | 8.36 ± 0.4 |
| GATTCATCTAAACACCGTACATATTATATATATATA [XGTACX_site6030] | 9.43 ± 0.67 |

| Sequence | gcPBM binding intensity (ln) |
| --- | --- |
| AGTATATTAAAAAATACACACGTATTATATCTACAT [CACACA_site8844] | 8.28 ± 0.35 |
| GTTCATAAATTAAACACACACACACCGCTGGATACC [CACACA_site5779] | 8.86 ± 0.5 |
| GATTATATATTAAAAAGTACTTTATAAATACTTCTA [XGTACX_site8992] | 8.34 ± 0.37 |
| CATATACATTGTATATGTACATATATATATATATAT [XGTACX_site3772] | 10.1 ± 0.36 |
| TGATGCAAAATATATACACACATATATATATATATA [CACACA_site3052] | 10.1 ± 0.32 |
| TATACCACCCGATATACACACTTGTAGACATCTTTT [CACACA_site4268] | 8.6 ± 0.49 |
| TATGGGTTTATATAGGTGCAATATATGTATATATAA | 8.77 ± 0.13 |
| AACCATTGGGAAAGGGTGCACATATATATATATATA | 10.8 ± 0.35 |
| AGCAATATTTATTAAAGTACGTAAAAAAAATTCTCA [XGTACX_site6550] | 8.45 ± 0.53 |
| ACAAAACTCTTTAATTGTACAAATATAATATAAAAA [XGTACX_site5690] | 8.6 ± 0.39 |
| TATATAGTTTATATTTGTACATATAGACATTTATAA [XGTACX_site6414] | 8.23 ± 0.3 |
| TCTTATTATAAAAGGAGTACATCAATTAGATGTTCC [XGTACX_site8465] | 8.28 ± 0.33 |
| ATATATATATAATATTGTACATAGTAGACATCACAC [XGTACX_site4649] | 9.48 ± 0.27 |
| CAAAGCATAGTATGATGTACAAATGTTCCTATAATA [XGTACX_site8642] | 8.59 ± 0.39 |
| TTATGTTTATACACTACACACATTATTCATAAAAAA [CACACA_site4637] | 8.55 ± 0.31 |
| TAAAATATGGAAATCACACATTTATTAAAATATATA [CACACA_site4623] | 8.12 ± 0.39 |
| TATATATGTATAAGAGTGCATATGCATATATGTATA [GTGCAC_site9692] | 8.69 ± 0.17 |
| CATCTTAAATAAGAACGTACATTTTTTTTGATGAGA [XGTACX_site3462] | 8.23 ± 0.37 |
| AAGACAAAACAAAGAAGTACATATATATATATATAT [XGTACX_site4067] | 10.3 ± 0.4 |
| GGAGACTTTGTACAAACACACACATGAACACAATAT [CACACA_site8376] | 9.06 ± 0.55 |
| ATGTATATATTTATGTGTACTTAAATTTTTTTTTGT [XGTACX_site8179] | 8.28 ± 0.31 |
| TTTTAATATATAGAGTAACAAATTTGTCTATTAATA [CACACA_negctrl_site1495] | 8.41 ± 0.64 |
| TCTTCACCACGTGGAAGTACATAAAAAGATACACAA [XGTACX_site4747] | 8.93 ± 0.51 |

| Sequence | gcPBM binding intensity (ln) |
| --- | --- |
| TAATTTAAAAATGAACATATATATGTATGTAAATAT [TGCATGCA_negctrl_site135] | 8.98 ± 0.39 |
| ATACATTCTAATACGTGTACATATATATATATATAT [XGTACX_site1881] | 10.2 ± 0.28 |
| AATAATATTAACACACGTACAAAAGCAAACAACCAA [XGTACX_site7410] | 9.16 ± 0.55 |
| TTTATATTATTATATCTTATTAATTATTTATCATTT [TGCATGCA_negctrl_site73] | 8.12 ± 0.47 |
| ATAAAACAAAAACACACACACATACACAAAAAAAAA [CACACA_site3848] | 8.55 ± 0.54 |
| TGGGAAAAAATATATGCACACCCCCCAAAAAAAAAA [CACACA_site8696] | 11.1 ± 0.35 |
| AATTCTTTATTATATGCACACGTACATATAATATAT [CACACA_site8621] | 8.66 ± 0.24 |
| AAAAAATGTTATAAAAGTACATAATTTATCTACCAT [XGTACX_site3035] | 8.44 ± 0.12 |
| ATATACTGTATGAAAGCACACATACTTATTACTAAC [CACACA_site9384] | 8.45 ± 0.28 |
| TTTTTATATAATTTAACACACATTTCATATAAAAAA [CACACA_site3103] | 8.28 ± 0.42 |
| ATGTGAAAATAAGACACACTCAAAAGGTTTATATTA [CACACA_site4595] | 8.23 ± 0.4 |
| TTTAAAAAATAATATTGTACTATTCTCCCAATTTCT [XGTACX_site7079] | 8.23 ± 0.38 |
| TAACTTTGGAGGAGCTGTACGATTATTTTGATCCTT [XGTACX_site2514] | 8.41 ± 0.38 |
| AAAAAATTTCAAATAACACACACTAATATAAATATG [CACACA_site6783] | 8.54 ± 0.47 |
| AAGTTTTTTTTTATCACACACAAAAAAAAAAATATA [CACACA_site1362] | 8.32 ± 0.45 |
| AAAAAATGAAAAAACTGTACGCAATTTTGTTTTTAT [XGTACX_site2299] | 8.55 ± 0.29 |
| AAAAAAAAAAAAAAGTGTACCTTCAAAATAATATTG [XGTACX_site2844] | 8.4 ± 0.3 |
| ATAAATATAAAACACACACACATATTATATATATAT [CACACA_site3064] | 9.62 ± 0.13 |
| TCTTTCCTTATTAAAACACACAAATACATTATTTAA [CACACA_site2147] | 8.48 ± 0.41 |
| CCTTTTTCTACTTTCTCACACATATTAAGAATTATA [CACACA_site5621] | 8.87 ± 0.35 |
| CTATATATAACCCATGTGCACTTTTTATGTACAATA | 9.43 ± 0.085 |
| AAAACGCAGTTTAATATACACACCAAAAAAAAAAAA [CACACA_site3036] | 8.33 ± 0.52 |
| CACAAATATATACATACACACATATATACACATATA [CACACA_site8024] | 8.47 ± 0.34 |

| Sequence | gcPBM binding intensity (ln) |
| --- | --- |
| TTTGAGATGTGGTGTACACAAAATTAGGTACACATC [CACACA_site5773] | 8.92 ± 0.33 |
| ATATATATATATTTATGTACGCATTTATAGACGTAG [XGTACX_site6031] | 9.79 ± 0.26 |
| TAAAATATGTCATGGGTGCTTCTTTTTATACCTATG [GTGCAC_site9888] | 8.61 ± 0.31 |
| AAAAAAAAAAAATTATGTACATATTATATATAATGG [XGTACX_site2885] | 8.65 ± 0.53 |
| AAATATTATAATAATTGTACTATATATACAGTTATT [XGTACX_site1963] | 8.34 ± 0.38 |
| TTTTATATTTATTTTTGTACATAAATGATCTCAAAT [XGTACX_site7768] | 8.53 ± 0.29 |
| TGTTTTTAAAAATATACACACACAGATATTATATAT [CACACA_site8162] | 8.4 ± 0.39 |
| ACTTAAATAATACATACACACATGTACTTACAGAAA [CACACA_site8458] | 8.53 ± 0.33 |
| AGAAAAAAAAAAAAAAATAAAAAAATAAATAAATAA [GTGCAC_negctrl_site161] | 8.24 ± 0.69 |
| TATGATAACCATAATTGTACAGAATGAAACGTAAAT [XGTACX_site1653] | 9.04 ± 0.58 |
| ATATATTTTTCTTTACGTACGAAGCAAAATAACATT [XGTACX_site8145] | 8.5 ± 0.38 |
| AAATGAACATATATGTGTACTTATATTTTTCTAAAT [XGTACX_site3388] | 8.41 ± 0.28 |
| AATTGTTTTTTTTTCTTATTTTATGTTATACACACA [TGCATGCA_negctrl_site380] | 8.78 ± 0.59 |
| AAAAAAAAAAAAAACACATGCAGAAGAAAAAAAATA [TGCATGCA_site545] | 9.12 ± 0.23 |
| TCATTAAATGTTTAGGTGCATACTTTAATTTTTAAT [GTGCAC_site9906] | 8.56 ± 0.16 |
| AAAAAAAAAAAAAAAGTGCATATATAAATATTGTAT [GTGCAC_site9459] | 8.62 ± 0.3 |
| ATTATATAAGTACACAAACAAGTATGAGATTCAAAA [GTGCAC_negctrl_site119] | 8.62 ± 0.38 |
| TGTTTTAAACTAATTTGTACATAGTTATTTATATTT [XGTACX_site7196] | 8.54 ± 0.46 |
| TATTAATTTCGGGAAGTGCATTATGTTTATAGAATA | 8.675 ± 0.021 |
| CCATATATTTGGTATAGTACTTTTTATTTTATTTCA [XGTACX_site8933] | 8.66 ± 0.33 |
